From PubChem BioAssay AID1347073 (National Center for Advancing Translational Sciences (NCATS), 2019)
Screen size: about 45,000 compounds; about 200 (0.44%) were called active. About 7% were inconclusive and are not listed. Calls come from the whole dose curve; as a rule, active = well fitted activation curve with a large enough effect; inconclusive = small, poorly fitted or top-dose-only effect; inactive = no such curve, though single readings can be large or run the other way. The list shows a part of the results.

assay: qHTS of TDP-43 Inhibitors: NCGC Sytravon Library Screen; conditions: yeast TDP-43 toxicity rescue, BacTiter-Glo growth, 24 h; series mostly up to 46.1 µM; growth rescue (activation): at the top concentration; note: 0% is about no effect; nearly all actives have a fitted effect of over 55% in size
How it was run: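 TDP-43-expressing yeast, pregrown in raffinose, seeded at OD600 0.02 in galactose medium with compound for 24 hr at 30 deg C. Growth read by BacTiter-Glo luminescence, so rescue of toxicity appears as activation.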

| SMILES | growth rescue (activation) |
| --- | --- |
| O=C(c1ccccc1)N1CCN(C(=O)c2ccc([N+](=O)[O-])cc2)CC1 | inactive: 2.23% |
| COC(=O)c1ccc(CNC(=O)N2CCN(S(=O)(=O)c3ccc(C)cc3)CC2)cc1 | inactive: 1.76% |
| Cc1ccc(C)c(N(CC(=O)NC2CCCC2)C(=O)CCCC(=O)Nc2ccccn2)c1 | inactive: -8.08% |
| CCc1cccc(CC)c1-n1c(SCC(=O)c2c(N)n(C)c(=O)n(C)c2=O)nnc1-c1cccnc1 | inactive: 10.8% |
| COc1cccc(OCC(=O)N(C)Cc2nc(-c3ccccc3)no2)c1 | inactive: 2.79% |
| COc1ccc(NC(=O)c2cc(-c3cc(Cl)ccc3C)n[nH]2)c(OC)c1 | inactive: 9.78% |
| Cc1ccc(Nc2c(-c3ccc(C)o3)nc3ncccn23)cc1 | inactive: 5.5% |
| COc1ccc(OCCN2CCC(C(=O)NC(c3ccsc3)c3ccccc3C)CC2)cc1 (configuration not stated) | inactive: 7.49% |
| O=C(Nc1cccc(Oc2ccccc2)c1)C1Cc2c(-c3cccc(F)c3)ccnc2O1 (configuration not stated) | inactive: 19.9% |
| Cc1nc(Cc2nnc(SCC(=O)N3CC(=O)Nc4ccccc43)o2)cs1 | inactive: 2.53% |
| O=C(Nc1ccc2c(c1)CN(Cc1ccc(CO)o1)CC2)c1ccc(C(F)(F)F)cc1 | inactive: -13.6% |
| CS(=O)(=O)N1CCN(C(=O)c2ccncc2)CC1 | inactive: 15.3% |
| Cc1ccc(NC(=O)c2cc(C)nn2-c2ccccc2)cc1 | inactive: 28.3% |
| COC(=O)CN1C(=O)C(C)(C)Oc2ccc(C(=O)Nc3cccc(OC)c3)cc21 | inactive: 13% |
| Cc1cc(C(=O)CSc2nnc(-c3ccco3)o2)c(C)n1-c1ccc2c(c1)OCCO2 | inactive: 17% |
| CCN(C(=O)COC(=O)c1c(C)noc1C)C1CCS(=O)(=O)C1 (configuration not stated) | inactive: 7.62% |
| O=C(/C=N/NC(=O)c1ccccc1Br)c1ccccc1 | inactive: 11.5% |
| CCOC(=O)C1CCN(C(=O)Nc2ccc3nc(-c4ccco4)c(-c4ccco4)nc3c2)CC1 | inactive: 15.5% |
| CC1(C(=O)Nc2ccc3c(c2)OCO3)Cc2c(-c3ccccc3)ccnc2O1 (configuration not stated) | inactive: -4.57% |
| CN1CCN(CC(C)(C)NS(=O)(=O)c2ccccc2)CC1 | inactive: 11.4% |
| CCCS(=O)(=O)NC(=O)C1(C)CCCN(C(=O)/C=C/c2ccccc2)C1 (configuration not stated) | inactive: -2.77% |
| O=C(Nc1ccc([N+](=O)[O-])cn1)C1CCCCC1 | inactive: 20.1% |
| COc1cccc(Nc2nc(-c3cccs3)nc3ccccc23)c1 | inactive: -23.6% |
| O=C(CCc1nnc(CCCCc2ccccc2)o1)NC1CCCC1 | inactive: 10.2% |
| CC(=O)c1cc(-c2ccc(F)cc2)n(CCC(=O)Nc2cccc(C)n2)c1C | inactive: -10.3% |
| O=C(O)c1ccc(-n2nnc3ccccc32)c([N+](=O)[O-])c1 | inactive: 13.5% |

| SMILES | growth rescue (activation) |
| --- | --- |
| O=C(O)c1ccccc1/C=N/N1CCN(C2c3ccccc3-c3ccccc32)CC1 | inactive: 7.41% |
| CC(C)(C)c1ccc(CC(=O)N2CCC2(C)C(=O)N2CCCCC2)cc1 (configuration not stated) | inactive: 1.83% |
| COc1ccc(CNC(=O)COC(=O)c2cccs2)cc1 | inactive: 19.9% |
| N#Cc1nc(-c2ccc(OCc3ccccc3)cc2)oc1NCc1cccnc1 | inactive: -10% |
| NC(=O)NC(=O)CN1c2cccc3cccc(c23)S1(=O)=O | inactive: 5.3% |
| CCC(=O)NCCNC(=O)c1c(SC)nsc1SC | inactive: 0.918% |
| COC(=O)NCC(c1cccnc1)N1CCN(c2ccccc2OC)CC1 (configuration not stated) | inactive: 17.4% |
| CCCNC(=O)CCCCn1c(=S)[nH]c2c([nH]c3ccc(OC)cc32)c1=O | inactive: -7.1% |
| O/N=C(\c1ccccc1)C(O)c1ccccc1 (configuration not stated) | inactive: -0.0583% |
| CN(C)S(=O)(=O)c1cccc(C(=O)Nc2n[nH]c(C(F)(F)F)n2)c1 | inactive: 10% |
| CCN(CC(=O)NC1CCS(=O)(=O)C1)C(=O)/C=C/c1cccs1 (configuration not stated) | inactive: -9.99% |
| O=C(CN1CCN(S(=O)(=O)c2ccccc2F)CC1)N1CCc2ccccc2C1 | inactive: -9.3% |
| CCOc1ccc(OCC)c(Nc2nc3ccccc3n3nnnc23)c1 | inactive: 6.79% |
| COc1ccc(-c2nc(NC(=O)C3CC(=O)N(c4ccc5c(c4)OCCO5)C3)sc2C)cc1 (configuration not stated) | inactive: 9.88% |
| COc1ccccc1NS(=O)(=O)c1ccc2oc(SCc3ccc(C#N)cc3)nc2c1 | inactive: 5.56% |
| O=C(Nc1ccccc1)/C(=C/c1ccc([N+](=O)[O-])cc1)NC(=O)c1ccco1 | inactive: -9.91% |
| CCCN1CCN(CCCNC(=O)C2CCN(c3nnc(-n4cccc4)s3)CC2)CC1 | inactive: -7.39% |
| Cc1ccnc(SCC(=O)Nc2sc3c(c2C#N)CCCC3)n1 | inactive: 10.9% |
| CCN(CC)S(=O)(=O)c1cccc(C(=O)N[C@H](C(=O)NNC(=O)c2ccccc2)C(C)C)c1 | inactive: 7.7% |
| COc1ccc(/C=C/c2c([N+](=O)[O-])c(=O)n(C)c(=O)n2C)c(OC)c1OC | inactive: 0.985% |
| COc1ccc(S(=O)(=O)N2CCN(CC(=O)N3CCOCC3)CC2)cc1OC | inactive: 9.96% |
| CCCc1nnc(NC(=O)C2CCN(C(=O)c3ccco3)CC2)s1 | inactive: -3.1% |
| O=C(O)CCCC(=O)NNc1ncnc2ccccc12 | inactive: -1.32% |
| COc1ccc(N(CC(=O)NCCOc2ccccc2)S(=O)(=O)c2ccc(C)cc2)cc1 | inactive: -2.65% |
| CCc1ccc(N(C(=O)c2csnn2)C(C(=O)NC(C)(C)C)c2cccnc2)cc1 (configuration not stated) | inactive: 8.26% |
| CC(C)C(=O)N[C@H]1CCC2C3CC=C4C[C@@H](O)CC[C@]4(C)C3CC[C@@]21C (some centres not stated) | inactive: -1.06% |
